{
  "source": "the supplement of paper PMC6531468",
  "note": "The other results are listed elsewhere or left out. Read counts after selection give these values, which scatter widely. Each score is taken over the longer molecules that contain the sequence shown.",
  "data": [
    {"test_system": "IMP3 KH3-4", "sequence (chain, as listed by the source)": "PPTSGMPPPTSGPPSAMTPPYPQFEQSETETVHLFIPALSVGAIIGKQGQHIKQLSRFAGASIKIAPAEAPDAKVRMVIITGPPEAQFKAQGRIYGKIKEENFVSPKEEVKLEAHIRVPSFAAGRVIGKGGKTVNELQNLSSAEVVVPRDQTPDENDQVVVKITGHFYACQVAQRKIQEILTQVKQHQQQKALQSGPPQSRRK", "test": "6-mer SELEX enrichment z-score vs GST control; IMP3 is the RNA-binding protein IGF2BP3; higher = more enriched by binding", "conditions": "construct: KH3-4 (377-579); SELEX round: R4", "experimental": "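SELEX-seq with GST-tagged IMP3 KH3-4 (Pro377-Lys579) and an N40 RNA pool, round 4. 6-mer z-score of sequence-tag enrichment normalised to the corresponding GST SELEX round; RNA k-mers written as DNA (T for U).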", "values": [
      {"sequence": "GCACCT", "6-mer SELEX enrichment z-score": -0.774},
      {"sequence": "TGCCAC", "6-mer SELEX enrichment z-score": -0.422},
      {"sequence": "TACATG", "6-mer SELEX enrichment z-score": 1.45},
      {"sequence": "CAAGGC", "6-mer SELEX enrichment z-score": -0.063},
      {"sequence": "ACGGTG", "6-mer SELEX enrichment z-score": -0.078},
      {"sequence": "CAGCGC", "6-mer SELEX enrichment z-score": -1.3},
      {"sequence": "ACTCTA", "6-mer SELEX enrichment z-score": -0.348},
      {"sequence": "TAAAAG", "6-mer SELEX enrichment z-score": 0.576},
      {"sequence": "CTGCCG", "6-mer SELEX enrichment z-score": -0.554},
      {"sequence": "GAGGCT", "6-mer SELEX enrichment z-score": 0.457},
      {"sequence": "GTTGAC", "6-mer SELEX enrichment z-score": -0.798},
      {"sequence": "TATGTA", "6-mer SELEX enrichment z-score": 0.974},
      {"sequence": "CTTCCA", "6-mer SELEX enrichment z-score": -0.008},
      {"sequence": "TCCTGA", "6-mer SELEX enrichment z-score": -0.744},
      {"sequence": "GCGTGA", "6-mer SELEX enrichment z-score": -0.764},
      {"sequence": "TGGGCT", "6-mer SELEX enrichment z-score": 0.142},
      {"sequence": "GACCTG", "6-mer SELEX enrichment z-score": -1.46},
      {"sequence": "CGCTGC", "6-mer SELEX enrichment z-score": -0.177},
      {"sequence": "GAAATT", "6-mer SELEX enrichment z-score": 1.25},
      {"sequence": "ATGAGC", "6-mer SELEX enrichment z-score": -2.55},
      {"sequence": "TAAGCG", "6-mer SELEX enrichment z-score": -0.813},
      {"sequence": "CCCGTT", "6-mer SELEX enrichment z-score": -0.467},
      {"sequence": "ATTTAA", "6-mer SELEX enrichment z-score": 2.82},
      {"sequence": "GTGCTA", "6-mer SELEX enrichment z-score": 0.009},
      {"sequence": "GACGAG", "6-mer SELEX enrichment z-score": -1.42},
      {"sequence": "GGTTGG", "6-mer SELEX enrichment z-score": 0.371},
      {"sequence": "AGCCCC", "6-mer SELEX enrichment z-score": -0.996},
      {"sequence": "ACGCAT", "6-mer SELEX enrichment z-score": 0.023},
      {"sequence": "CAAGCG", "6-mer SELEX enrichment z-score": -1.94},
      {"sequence": "CTCAAA", "6-mer SELEX enrichment z-score": -1.39},
      {"sequence": "GGAACG", "6-mer SELEX enrichment z-score": -0.187},
      {"sequence": "TAGGTA", "6-mer SELEX enrichment z-score": 0.169},
      {"sequence": "GTTGTG", "6-mer SELEX enrichment z-score": 0.006},
      {"sequence": "TAAAGC", "6-mer SELEX enrichment z-score": -0.555},
      {"sequence": "CGGACA", "6-mer SELEX enrichment z-score": 0.212},
      {"sequence": "CCGAAC", "6-mer SELEX enrichment z-score": -2.77},
      {"sequence": "GTCACG", "6-mer SELEX enrichment z-score": -0.634},
      {"sequence": "CTGGGG", "6-mer SELEX enrichment z-score": 0.158},
      {"sequence": "ATTCCT", "6-mer SELEX enrichment z-score": 0.609}
    ]}
  ]
}
